Measurements: publication PMC9911399, “Two distinct binding modes provide the RNA-binding protein RbFox with extraordinary sequence specificity”
Numbering of substitutions follows the chain as printed; changes in the protein carry UniProt numbers. This is one part of the list.

T1: RBFOX1 RRM (Homo sapiens, UniProt Q9NWB1 109-208)
T1 sequence: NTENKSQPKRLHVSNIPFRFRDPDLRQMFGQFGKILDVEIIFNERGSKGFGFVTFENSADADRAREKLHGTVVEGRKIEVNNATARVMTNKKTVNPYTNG

B1: AUAAUGU (DNA:RNA)
RNA: GGGAGACCGGAAUUCAGAUUGUCCAUAAUGUUUAAAUCCCGUCGUAGCCACCA
DNA 1: CAATCTGAATTCCGGTCTCCC
DNA 2: TGGTGGCTACGACGGGATT
B2: UGUAACC (DNA:RNA)
RNA: B1 RNA with A25U, U26G, A27U, U29A, G30C, U31C
DNA 1: CAATCTGAATTCCGGTCTCCC
DNA 2: TGGTGGCTACGACGGGATT
B3: ACUACCC (DNA:RNA)
RNA: B1 RNA with U26C, A27U, U29C, G30C, U31C
DNA 1: CAATCTGAATTCCGGTCTCCC
DNA 2: TGGTGGCTACGACGGGATT
B4: UGUUACG (DNA:RNA)
RNA: GGGAGACCGGAAUUCAGAUUGUCCUGUUACGUUAAAUCCCGUCGUAGCCACCA
DNA 1: CAATCTGAATTCCGGTCTCCC
DNA 2: TGGTGGCTACGACGGGATT
B5: AACCUCG (DNA:RNA)
RNA: B1 RNA with U26A, A27C, A28C, G30C, U31G
DNA 1: CAATCTGAATTCCGGTCTCCC
DNA 2: TGGTGGCTACGACGGGATT
B6: CAUGGCA (DNA:RNA)
RNA: B4 RNA with U25C, G26A, U28G, A29G, G31A
DNA 1: CAATCTGAATTCCGGTCTCCC
DNA 2: TGGTGGCTACGACGGGATT
B7: ACGCUUC (DNA:RNA)
RNA: B1 RNA with U26C, A27G, A28C, G30U, U31C
DNA 1: CAATCTGAATTCCGGTCTCCC
DNA 2: TGGTGGCTACGACGGGATT
B8: CGAUGUC (DNA:RNA)
RNA: B4 RNA with U25C, U27A, A29G, C30U, G31C
DNA 1: CAATCTGAATTCCGGTCTCCC
DNA 2: TGGTGGCTACGACGGGATT
B9: AUUGCGU (DNA:RNA)
RNA: B1 RNA with A27U, A28G, U29C
DNA 1: CAATCTGAATTCCGGTCTCCC
DNA 2: TGGTGGCTACGACGGGATT
B10: CUCCUCA (DNA:RNA)
RNA: B1 RNA with A25C, A27C, A28C, G30C, U31A
DNA 1: CAATCTGAATTCCGGTCTCCC
DNA 2: TGGTGGCTACGACGGGATT
B11: UGGGUAC (DNA:RNA)
RNA: B4 RNA with U27G, U28G, A29U, C30A, G31C
DNA 1: CAATCTGAATTCCGGTCTCCC
DNA 2: TGGTGGCTACGACGGGATT
B12: ACUACUA (DNA:RNA)
RNA: B1 RNA with U26C, A27U, U29C, G30U, U31A
DNA 1: CAATCTGAATTCCGGTCTCCC
DNA 2: TGGTGGCTACGACGGGATT
B13: CAAAAGA (DNA:RNA)
RNA: B1 RNA with A25C, U26A, U29A, U31A
DNA 1: CAATCTGAATTCCGGTCTCCC
DNA 2: TGGTGGCTACGACGGGATT
B14: CUUCUUC (DNA:RNA)
RNA: B1 RNA with A25C, A27U, A28C, G30U, U31C
DNA 1: CAATCTGAATTCCGGTCTCCC
DNA 2: TGGTGGCTACGACGGGATT
B15: GUGCCGC (DNA:RNA)
RNA: B1 RNA with A25G, A27G, A28C, U29C, U31C
DNA 1: CAATCTGAATTCCGGTCTCCC
DNA 2: TGGTGGCTACGACGGGATT
B16: CUGCAGA (DNA:RNA)
RNA: B1 RNA with A25C, A27G, A28C, U29A, U31A
DNA 1: CAATCTGAATTCCGGTCTCCC
DNA 2: TGGTGGCTACGACGGGATT
B17: CGCGGAG (DNA:RNA)
RNA: B4 RNA with U25C, U27C, U28G, A29G, C30A
DNA 1: CAATCTGAATTCCGGTCTCCC
DNA 2: TGGTGGCTACGACGGGATT
B18: GUCGCAC (DNA:RNA)
RNA: B1 RNA with A25G, A27C, A28G, U29C, G30A, U31C
DNA 1: CAATCTGAATTCCGGTCTCCC
DNA 2: TGGTGGCTACGACGGGATT
B19: GCCAUUG (DNA:RNA)
RNA: B1 RNA with A25G, U26C, A27C, G30U, U31G
DNA 1: CAATCTGAATTCCGGTCTCCC
DNA 2: TGGTGGCTACGACGGGATT
B20: AACCCUU (DNA:RNA)
RNA: B1 RNA with U26A, A27C, A28C, U29C, G30U
DNA 1: CAATCTGAATTCCGGTCTCCC
DNA 2: TGGTGGCTACGACGGGATT
B21: GAUGCUC (DNA:RNA)
RNA: B4 RNA with U25G, G26A, U28G, A29C, C30U, G31C
DNA 1: CAATCTGAATTCCGGTCTCCC
DNA 2: TGGTGGCTACGACGGGATT
B22: CAAAGUA (DNA:RNA)
RNA: B1 RNA with A25C, U26A, U29G, G30U, U31A
DNA 1: CAATCTGAATTCCGGTCTCCC
DNA 2: TGGTGGCTACGACGGGATT
B23: GUGGCCG (DNA:RNA)
RNA: B4 RNA with U25G, G26U, U27G, U28G, A29C
DNA 1: CAATCTGAATTCCGGTCTCCC
DNA 2: TGGTGGCTACGACGGGATT
B24: GUGCUUG (DNA:RNA)
RNA: B1 RNA with A25G, A27G, A28C, G30U, U31G
DNA 1: CAATCTGAATTCCGGTCTCCC
DNA 2: TGGTGGCTACGACGGGATT
B25: CGAAUAA (DNA:RNA)
RNA: B1 RNA with A25C, U26G, G30A, U31A
DNA 1: CAATCTGAATTCCGGTCTCCC
DNA 2: TGGTGGCTACGACGGGATT
B26: GGAGCAG (DNA:RNA)
RNA: B4 RNA with U25G, U27A, U28G, A29C, C30A
DNA 1: CAATCTGAATTCCGGTCTCCC
DNA 2: TGGTGGCTACGACGGGATT
B27: GUAGGUG (DNA:RNA)
RNA: B1 RNA with A25G, A28G, U29G, G30U, U31G
DNA 1: CAATCTGAATTCCGGTCTCCC
DNA 2: TGGTGGCTACGACGGGATT
B28: AUGUGGG (DNA:RNA)
RNA: B1 RNA with A27G, A28U, U29G, U31G
DNA 1: CAATCTGAATTCCGGTCTCCC
DNA 2: TGGTGGCTACGACGGGATT
B29: UGAUAUG (DNA:RNA)
RNA: B4 RNA with U27A, C30U
DNA 1: CAATCTGAATTCCGGTCTCCC
DNA 2: TGGTGGCTACGACGGGATT
B30: ACUGCGU (DNA:RNA)
RNA: B1 RNA with U26C, A27U, A28G, U29C
DNA 1: CAATCTGAATTCCGGTCTCCC
DNA 2: TGGTGGCTACGACGGGATT
B31: CCAUUCG (DNA:RNA)
RNA: B4 RNA with U25C, G26C, U27A, A29U
DNA 1: CAATCTGAATTCCGGTCTCCC
DNA 2: TGGTGGCTACGACGGGATT

Target: T1, RBFOX1 RRM
Assay: EMSA; HiTS-Eq, 1 nM pool, 10 min; buffer printed only for the single-RNA assays: 10 mM Tris pH 7.5, 150 mM NaCl, 3.4 mM EDTA, 0.001% NP-40, 30 C
Settings: tags: His6 N-terminal (pET28a); label: 5' 32P
In short: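 These values rest on relative association constants, computed from read-count changes of each RNA species versus the control reaction and normalised to the cognate motif. Reads came from free RNA recovered by 8% native PAGE after purified RbFox RRM (wild type or mutant) at increasing concentrations was equilibrated for 10 min in 50 µL with 1 nM of a 5′-radiolabelled pool with 7 randomized nucleotides and DNA-annealed flanks.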

Binder	binding signal
B1	0.00669 KA relative to UGCAUGU
B2	0.00753 KA relative to UGCAUGU
B3	0.00249 KA relative to UGCAUGU
B4	0.0175 KA relative to UGCAUGU
B5	0.00169 KA relative to UGCAUGU
B6	0.0103 KA relative to UGCAUGU
B7	0.00748 KA relative to UGCAUGU
B8	0.0174 KA relative to UGCAUGU
B9	0.0121 KA relative to UGCAUGU
B10	0.0035 KA relative to UGCAUGU
B11	0.0257 KA relative to UGCAUGU
B12	0.00246 KA relative to UGCAUGU
B13	0.00211 KA relative to UGCAUGU
B14	0.00922 KA relative to UGCAUGU
B15	0.0163 KA relative to UGCAUGU
B16	0.0168 KA relative to UGCAUGU

Binder	binding signal
B17	0.017 KA relative to UGCAUGU
B18	0.0117 KA relative to UGCAUGU
B19	0.0121 KA relative to UGCAUGU
B20	0.000621 KA relative to UGCAUGU
B21	0.0194 KA relative to UGCAUGU
B22	0.00198 KA relative to UGCAUGU
B23	0.0209 KA relative to UGCAUGU
B24	0.053 KA relative to UGCAUGU
B25	0.00311 KA relative to UGCAUGU
B26	0.0164 KA relative to UGCAUGU
B27	0.0139 KA relative to UGCAUGU
B28	0.00956 KA relative to UGCAUGU
B29	0.0174 KA relative to UGCAUGU
B30	0.0105 KA relative to UGCAUGU
B31	0.00798 KA relative to UGCAUGU
